Source: PubChem BioAssay AID1508624 (National Center for Advancing Translational Sciences (NCATS), 2021)
The whole screen tested about 48,000 compounds, of which about 120 (0.25%) were called active. About 4% were inconclusive and are not listed. Calls come from the whole dose curve; as a rule, active = well fitted activation curve with a large enough effect; inconclusive = small, poorly fitted or top-dose-only effect, or another doubt; inactive = no such curve, though single readings can be large or run the other way. The list shows a part of the results.

experiment: Primary qHTS for Identification of Small Molecule Activators of Huntingtin-Antisense Promoter Activity; details: HEK293 HTT-AS promoter firefly luciferase reporter (activity 0% = vehicle and -100% = no light), 24 h; series mostly up to 57.5 µM; activity change, positive = activation: at the top concentration; note: nearly all actives have a fitted effect of over 55% in size
How it was run: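 HEK293 cells carrying firefly luciferase reporters were seeded at 2,500 per well in Opti-MEM and cultured for 24 h. They were then treated with compounds at up to 57.5 uM final for 24 h at 37 degrees C before Dual-Glo luminescence readout.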

Activity change, positive = activation, inactive:
CCc1ccc(-n2c(=O)c3cccnc3n2CC(=O)NCc2ccc(C)cc2)cc1 -5.31%
CCOC(=O)c1cc2c(=O)n3ccccc3nc2n(Cc2ccco2)c1=NC(=O)c1ccc(OCC)cc1 0%
Cn1c(=O)n(CCCc2ccccc2)c(=O)c2c1nc1n2CCN1c1ccc(F)cc1 -23%
CCOCC(O)COc1ccc(NC(=O)CC[S+](C)C)cc1 (configuration not stated)
CCCCOC(=O)c1ccc(NC(=O)c2cnc3ccc(C)cn3c2=O)cc1 6.14%
CCn1c(=O)cc(OCC(=O)N2CCN(c3ccc(F)cc3)CC2)c2ccccc21 -18.4%
CCN(c1cccc(C)c1)c1ncnc2c1cnn2-c1cccc(Cl)c1 8.11%
Cc1nn(C(=O)c2ccc(Br)cc2)c(C)c1Sc1ccccc1 -4.99%
COc1cc(OC)c(N(C)C(=O)c2sc3nc4n(c(=O)c3c2C)CCCC4)cc1Cl -10%
Cn1cc(S(=O)(=O)c2ccccc2)c(=O)c2cc(F)c(N3CCCCCC3)cc21 -24%
Cc1cc(C)cc(-n2c(SCC(=O)Nc3ccc4c(c3)OCCO4)nc3c([nH]c4ccccc43)c2=O)c1 -13.4%
COc1ccc(CNC(=O)CCc2nc(-c3ccc(C)cc3)no2)c(OC)c1 -31.9%
O=C(Nc1ccc2nc(SCC(=O)N3CCc4ccccc43)sc2c1)c1ccccc1F -4.76%
CC1=C(c2ccc(C)c(C)c2)S(=O)(=O)N=C1N1CCC(C(=O)NC(C)Cc2ccco2)CC1 (configuration not stated) -18.6%
COc1ccc(C)cc1-n1cnc2cc(C(=O)NC3CCCC3)ccc21 -18%
COc1cc(C(=O)Nc2nonc2-c2ccc(C)c(C)c2)cc(OC)c1OC -20.5%
Cc1ccc(NC(=O)c2ccc(NC(=O)N3CCSc4ncccc43)cc2)c(C)c1 3.69%
Cc1ccc(C(c2sc3nc(-c4ccco4)nn3c2O)N2CCC3(CC2)OCCO3)cc1 (configuration not stated) -2.4%
Cc1ccc(NC(=O)CSc2nc(-c3ccccc3Cl)nc3cc(=O)[nH]n23)c(C)c1 -7.48%
CCc1cccc(Nc2ncnc3onc(-c4ccc(F)cc4)c23)c1 -33.2%
COC(=O)c1c(C)nn(-c2ccc(F)cc2)c1-n1cccc1 -20.5%
O=C(CSc1nc(-c2ccc(F)cc2)cc(C(F)(F)F)n1)NCCc1ccccc1 -21.8%
COc1cccc(N2CCN(S(=O)(=O)c3ccc(-c4ccno4)cc3OC)CC2)c1 -13.3%
COc1ccc(OC)c(C2NC(=O)NC(C)=C2C(=O)Nc2ccc(F)cc2)c1 (configuration not stated) -8.41%
COc1cccc(N2CCN(C(=O)c3ccc(NC(=O)c4nsc5ccccc45)cc3)CC2)c1 -70.5%
CN1CCN(CCOc2cc(OC3CCOCC3)c3c(Nc4c(Cl)ccc5c4OCO5)ncnc3c2)CC1 11.9%
COc1ccc(NC(=O)c2ccco2)cc1NC(=O)COc1ccc(Cl)cc1C -32.7%
O=C(NCC(O)CO)c1c(I)c(C(=O)NCC(O)CO)c(I)c(N(CCO)C(=O)CO)c1I (configuration not stated) -14.4%
Cc1ccc(C(=O)NCc2ccc(F)cc2)cc1NC(=O)c1nsc2ccccc12 -2.36%
CCN(CC)CCNC(=O)c1sc2ncccc2c1-n1cccc1 -6.72%
CCOCCCn1c(=N)c(C(=O)NCC2CCCO2)cc2c(=O)n3cccc(C)c3nc21 (configuration not stated) -6.86%
Nc1ccc(S(=O)(=O)Nc2ccnn2-c2ccccc2)cc1
Cc1ccc(C)c(NC(=O)Cn2c(=O)n(Cc3ccccc3)c(=O)c3oc4ccccc4c32)c1 -8.3%
Cc1ccc(C)c(N2CCN(Cc3csc(C)c3)CC2)c1 -23.6%
COC(=O)C1=C(c2ccccc2)c2ccccc2S(=O)(=O)N1CC(=O)Nc1ccccc1Cl -31.2%
COC(=O)C1CCN(S(=O)(=O)c2cc3c4c(c2)CC(=O)N4CCC3)CC1 7.11%
CCN(C)C(=O)Oc1cccc([C@H](C)N(C)C)c1
O=C(c1cccs1)N1CCCc2cc(NS(=O)(=O)c3ccc(F)cc3F)ccc21 -4.08%
Cc1ccc(S(=O)(=O)c2cn(Cc3ccccc3Cl)c3ccc(F)cc3c2=O)cc1 7.28%
C[C@@H](N)c1ccc(C(=O)Nc2ccnc3[nH]ccc23)cc1 1.05%
COc1ccc(Br)cc1CNC(=O)c1ccc2c(c1)N(Cc1ccc(C)cc1)CCS2 -11.6%
Cc1ccc(CN2C(=O)c3ccccc3Sc3ccc(C(=O)OCc4ccco4)cc32)cc1 -24.1%
CC1Cc2cc(S(=O)(=O)N(Cc3ccccc3)C(C)C)ccc2N1C(=O)C1CCC1 (configuration not stated) -37.2%
Cc1ccccc1Nc1c(-c2cccs2)nc2cccc(C)n12 -12.7%
CCOc1ccc(/C=C/c2nc(C#N)c(NCCc3ccccc3)o2)cc1 -19.1%
O=C(CSc1nc2c([nH]c3ccccc32)c(=O)n1-c1ccc(Cl)cc1)NCC1CCCO1 (configuration not stated) -12.8%
Cc1cc(C(=O)Nc2c(C)nc3ccccn3c2=O)ccc1[N+](=O)[O-] -14.9%
CCOC(=O)c1c(C)oc2nc(C)nc(NCc3ccccc3OC)c12 -34.5%
COc1ccccc1NC(=O)Cn1c(=O)n(CCCCCC(=O)NCc2ccccc2)c(=O)c2sccc21 6.92%
COC(=O)C(c1ccccc1Cl)N1CCc2sccc2C1 (configuration not stated) -2.26%
COc1cccc(C(=O)Nc2ccccc2-c2nnc(-c3cccc(OC)c3)o2)c1 -11.5%
O=C(Cn1c(=O)oc2cc(S(=O)(=O)NCc3ccccc3)ccc21)NCc1ccc(Cl)cc1 -26.9%
CC(=O)Nc1ccc(S(=O)(=O)NC2(C(F)(F)F)NC(=O)N(CCc3ccc(F)cc3)C2=O)cc1 (configuration not stated) -9.11%
Cc1ccc(-n2c(SCC(N)=O)nc3c(oc4ccccc43)c2=O)cc1C -6.25%
Cc1ccc(-n2nc3c(=O)n(CCCC(=O)NCc4ccccc4F)nc(C)c3c2C)cc1 -17.5%
Cc1csc2nc(COC(=O)CNC(=O)c3ccccc3Cl)cc(=O)n12 0.297%
O=C(CSc1nc2ccncc2[nH]1)Nc1ccccc1C(F)(F)F -40.8%
O=C(Nc1c(C(=O)N2CCN(c3ccccc3F)CC2)oc2ccccc12)c1ccccc1F -0.492%
O=C(CN1CCCN(Cc2ccc(F)cc2)S1(=O)=O)NCc1ccccc1Cl -24.8%
CN1CCN(CCCNC(=O)c2ccc3nc(Cc4ccccc4)oc3c2)CC1 -10.1%
CCC12CN3CC(CC)(CN(C1)C3c1cc(Br)ccc1OC)C2=O (configuration not stated) -0.0174%
CCn1cc(C(=O)NCc2ccc(C)cc2)c(=O)c2cc(S(=O)(=O)N3CCc4ccccc4C3)ccc21 -20.8%
CNC(=O)c1cnn(-c2nc(N)c3ncn([C@@H]4O[C@H](CO)[C@@H](O)[C@H]4O)c3n2)c1 -12.6%
Cc1nc(-c2ccc(S(=O)(=O)N3CCN(c4ccc(F)cc4)CC3)cc2)co1 -37.9%
CCc1ccc(N(C)S(=O)(=O)c2ccc3[nH]cc(C(=O)NCC4CCCO4)c(=O)c3c2)cc1 (configuration not stated) -45.1%
N#Cc1ccccc1NC(=O)c1cnc(N2CCOCC2)c2ccccc12 -10.1%
CCC(=O)N1CCc2cc(Br)cc(S(=O)(=O)CCC(=O)NCc3ccc(F)cc3)c21 12.9%
CC(=O)N1CCOc2cc(S(=O)(=O)N(C)Cc3ccccc3)c(Cl)cc21 -16.5%
COc1ccccc1-c1nnc(C2CCN(C(=O)c3ccc(Cl)cc3)CC2)o1 13.2%
Cc1ccc(Cn2c(CNC(=O)c3cccc(C)c3)nc3ccccc32)cc1 -30.1%
COc1cccc2c1Oc1ncccc1N(C(=O)CCC(=O)NCc1ccc(C)cc1)C2 -7.44%
Cc1ccc(C)c(CN2C(=O)c3ccccc3S(=O)(=O)c3ccc(C(=O)NCc4ccccc4)cc32)c1 -18.8%
CCCN1CCc2nc(N3CCN(c4ncccn4)CC3)ncc2C1 12.1%
Cc1cccc(OCCCn2c(CCNC(=O)C(C)(C)C)nc3ccccc32)c1 -17.3%
CCn1cc2nc(SCc3cc(C)ccc3C)n(Cc3ccc(OC)cc3)c(=O)c2n1 -17.9%
Cc1cccc(OCCSc2nc3ccc(NC(=O)COc4ccccc4)cc3s2)c1 -7.71%
CCOCCCNC(=O)C(=O)Nc1c2c(nn1-c1ccc(OC)cc1)CSC2 -9.84%
Cc1ccc2c(=O)c(C(=O)c3ccc(F)cc3)cn(CC(=O)NCCc3ccccc3)c2n1 -7.16%
CCOc1ccc(C(=O)Nc2ccc3oc(-c4cccnc4)nc3c2)cc1 12.1%
Cc1c(C(=O)NCc2ccccc2Cl)sc2nc[nH]c(=O)c12 1.92%
COc1ccc(CN(Cc2ccco2)c2cnc(S(C)(=O)=O)nc2C(=O)Nc2ccc(C)cc2C)cc1 -25.6%
Cc1cc(C)c(OCC(=O)N(Cc2cccc(F)c2)Cc2ccco2)c(C)c1 -32.1%
CCc1nn(CC(=O)N2CCN(c3cccc(C(F)(F)F)c3)CC2)c(=O)c2cccn12 -16.7%
Cc1cccc(NC(=O)Cn2c(=O)oc3cc(S(=O)(=O)NC4CCCC4)ccc32)c1 -36.6%
CCOC(=O)c1ccc(NS(=O)(=O)c2ccc3[nH]c4c(c3c2)CCCCC4)cc1 -28.9%
CCC(=O)c1c(O)cc(O)cc1O -15.8%
Cc1oc(-c2ccc(C(=O)Nc3ccccc3F)cc2)nc1COc1ccccc1 -1.72%
CCN1C(=O)C(Cc2nc3ccccc3c(=O)n2-c2ccccc2)c2cc(Br)ccc21 (configuration not stated) -33%
COc1ccc(C)cc1NC(=O)CSc1nc(=O)n(Cc2ccccn2)c2c1CCC2 -34.3%
CC(=O)N1CCCc2cc(S(=O)(=O)Nc3ccc(C)c(F)c3)ccc21 -23.8%
Cc1oc2c(c(C)cc3oc(=O)c(CC(=O)NCc4ccc(F)cc4)c(C)c32)c1C -4.39%
Cc1cccc(C)c1NC(=O)CN1C(=O)c2cccc3cccc1c23 -1.83%
CCOc1ccc(NC(=O)CN2C(=O)C3(SCC(=O)N3c3ccc(F)cc3)c3ccccc32)cc1 (configuration not stated) -9.78%
COc1ccc(CNc2oc(-c3ccc(COc4ccc(OC)cc4)o3)nc2C#N)cc1 -30.3%
Cc1cccc(NC(=O)C2CCCN(c3nc4ccccc4s3)C2)c1C (configuration not stated) 12.4%
Cc1ccc(C)c(N2CCN(CCCNC(=O)Nc3ccc(Cl)cc3)CC2)c1 -32.1%
CCOC(=O)C1CCCN(C(=O)Cn2nc(CC)n3c(cc4occc43)c2=O)C1 (configuration not stated) -16.6%
